Experimental data from the supplement of paper PMC11417369.
This is one part of the list.

tested on: PF3D7_0420300 AP2 domain 1 (GST-tagged); test: gcPBM binding intensity (ln(normalized median fluorescence intensity)); higher = stronger DNA binding
Outline: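 Each value is the highest Masliner-normalised natural-log median intensity across replicate spots of either orientation of a probe. The probes were primer-extended double-stranded 36-bp intergenic genomic sequences on an Agilent 4 × 180k array, alongside negative controls, exposed for 1 h to GST-tagged P. falciparum DNA-binding domains expressed in E. coli. Bound protein was picked up with Alexa488 anti-GST antibody and scanned at 488 nm.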

Point of comparison: “CTTATATTGTACAGTACACACCTTTATAATGTTATT [CACACA_site4280]”, “gcPBM binding intensity (ln)” value 9.65. Against it:
- AAAAAAAAAAAAAGCACACACACATATGTGTATATA [CACACA_site8225] — higher, 9.93
- TAAATTGTATATGAGACTATACTATAAAAGTATGAA [XGTACX_negctrl_site22] — lower, 9
- TGTCTGTGCGGGTGTACACATTTCATATTACCCAAT [CACACA_site5593] — lower, 9.57
- TAATTTTTCCTTTTTGCACACATTAACGTCGACGAA [CACACA_site4025] — lower, 9.31
- CAATTTATTTTTATTACACACTATCCAAATAATTTC [CACACA_site2956] — lower, 9.29
- CCATAAAATCATAAGCGTACTTAATATATTTTACTT [XGTACX_site559] — lower, 9.28
- AGCATACATATTTTTTGTACATATATATATATATAT [XGTACX_site8536] — lower, 9.34
- AACATACGACAATACGCACACATATATGTACATATT [CACACA_site1917] — lower, 9.51
- TATATAATAATTTAGAGTACTGATAAAATATTCCAT [XGTACX_site6200] — lower, 9.21
- TTAAACAATTTAGACATACACACAAAAATAATATTA [CACACA_site385] — higher, 9.67
- TATAAAAAGCAAAACAAAAAAACAAATTGAAAAATT [TGCATGCA_negctrl_site158] — lower, 9.51
- TATAAATAATAAAGATGTACTTTTTATGATTCCTAC [XGTACX_site7003] — lower, 9.1
- CCGTAGTTTTAAAATAGTACTTTTATGGTTAATAAA [XGTACX_site3162] — lower, 8.82
- TTTTTTATTTTTTTATTGTTTTATTGTTTCATTGTT [XGTACX_negctrl_site128] — lower, 9.48
- TTACTACTATATTATACACACATATATTTATTTATA [CACACA_site7274] — higher, 9.69
- AATTAGATACTAACAAGTACATATATATATATATAT [XGTACX_site2252] — lower, 9.59
- TTTCCCTAATGAAAGTGTACCTGTGAGAAAAAAAAG [XGTACX_site194] — lower, 8.96
- ATTTAGATTAACACTTGTACATAATACATACAAATA [XGTACX_site4147] — lower, 9.15
- ATTTTTTTTTGTGTATATAAATAAATAAATATATAT [GTGCAC_negctrl_site603] — lower, 9.07
- TTGTAATTATTAAACACACACAAAATATCTAGAATA [CACACA_site7231] — higher, 9.73
- AAAAGAAAAGAGAGGAGTACAAAATATAATTATCTA [XGTACX_site5172] — lower, 9.38
- AAAAAAAAAAAAAGAACACACACAGTGCACATTCGG [CACACA_site8163] — higher, 9.71
- TTATTTATTTATATAGTGCAATAAACACATAAATAG — lower, 8.87
- TGTATATATTAATGTACACACATGCGTATGTTCGTT [CACACA_site3583] — lower, 9.59
- CATATTGGTATGCTCATGCACTTTTATTTTGTTATT [GTGCAC_site9553] — lower, 9.63
- ACTTTAAACAAAAAAAGTACTCTTTAATGAATATAT [XGTACX_site7176] — lower, 9.01
- TATATATATATATATATATATATATATATATGTTGT [TGCATGCA_negctrl_site24] — lower, 9.07
- CAATTTCTCTTAATTTGTACATATATGTTATACAAA [XGTACX_site3231] — lower, 9.07
- CAATATTTTATTTAAGCATGCTCTAGGGTGTAAAAG [TGCATGCA_site1001] — lower, 8.99
- AAATATATATAAAAGTGTACATTTGTTATAATCAGT [XGTACX_site4822] — lower, 9.51
- TAGATATATAATTTTTGTACGTAGTCGAATCTCAGA [XGTACX_site765] — lower, 9.06
- CTCAACAAAATATGAGTGCATTGTTATTACATATAT — lower, 9.32
- AACATTAAAAGGGATACACACATATAAATAAATAAT [CACACA_site489] — higher, 9.91
- TTATATATTTCTACTCATATTACAATGTGAGAAATA [CACACA_negctrl_site873] — lower, 8.91
- CCAACTAAAAAGGAATGTACATAGTTATGGTTGGAA [XGTACX_site8762] — lower, 9.35
- TTGTTTCTCTTTAAAAGTACAAAAATGGTTACATAT [XGTACX_site3109] — lower, 8.95
- TAGATTTTTTAATGTTGTACAAATATACGATATATA [XGTACX_site3258] — lower, 8.99
- ACTATTCATGCATATACACACACATATATATATATT [CACACA_site9309] — higher, 10
- TATAGTATTCTAAATGCATGTAAATTATGTATATAT [TGCATGCA_site931] — lower, 9.38
- TATATTATACTAAGAAGTACAATATTTTTATTGTAA [XGTACX_site2810] — lower, 8.94
- AAATTCCACGAACACACACACATATAAATAAATAAA [CACACA_site6697] — higher, 9.97
- TAGTAAAAACCAAAATGTACATGTGCCATTTTTTTA [XGTACX_site2630] — lower, 9.09
- GTTTATCACAGCCACGCACACATAATATCTGTATAT [CACACA_site5929] — higher, 9.73
- GATTATTAATAGTAACGTACATATGTTATAAAATAT [XGTACX_site5277] — lower, 9.21
- ATCAAAAAAAAAAAAAGTACACAAAATTTTTTATTA [XGTACX_site7986] — lower, 9
- TATATGTGTGTTATATGTACTTATATATATATATAT [XGTACX_site5570] — lower, 9.48
- ATAATGAACAAAGTAGTGCACTTTCCTTATCTTTTC — lower, 9.22
- AAGGTTTAAAATTACTGTACAAATATAAATAAATAT [XGTACX_site3756] — lower, 9.21
- ACTAATATGTATATATATATATATATATATATATAT [CACACA_negctrl_site141] — lower, 9
- TACATATTTAAATACTGTACTCAAAAGAATTGTGCA [XGTACX_site2250] — lower, 9.04
- AAAATATAAAATAATGCACACATAAACAAAAAATCA [CACACA_site8382] — higher, 9.75
- TAAAGTTAAAAATTATGTACATATATATTGTATATT [XGTACX_site5528] — lower, 9.12
- GATAAAATAGGACCATATTCTTTAAAACGATAAAAT [XGTACX_negctrl_site405] — lower, 9.25
- ATATATATATATTTATGTACATATACATAATGTATA [XGTACX_site6387] — lower, 9.11
- TAAGAAGTATTTTCCTGTACATATTTTATATGTATG [XGTACX_site4658] — lower, 9.07
- TTATTTTATATATCACGTACATAGTTGTCTTCTTTT [XGTACX_site2906] — lower, 9.38
- ATGAATCCTTAATATGAACACACAAATATATTACAC [CACACA_site7943] — lower, 9.55
- TTATTTCAAAGTAAATCAGTAAATATTTGTTTTCTT [CACACA_negctrl_site1572] — lower, 9.02
- TTTTTTATTTATCCTATATATTACTAAATGAAGAAC [GTGCAC_negctrl_site333] — lower, 8.87
- TCCTTATTTATATAATGTACTTTTTTTTTTCATTTT [XGTACX_site4275] — lower, 9.22
- TACAAGTATAAATAAGCACACATGTGGATATGTACA [CACACA_site4229] — lower, 9.58
- TATATCTTATTTAACACACACAAAGAAAATAGAAAA [CACACA_site3732] — higher, 9.77
- TCTTTAAATTTCTCAACACACAGTTATAAAAAATAA [CACACA_site2856] — lower, 8.98
- AACAATAAAAATAATTGTACAAGTTTAAAAAAAATT [XGTACX_site1987] — lower, 9.23
- ATATTTTTTTTTGTTAGTACTCATATTTGTAGTTTT [XGTACX_site7280] — lower, 9.64
- CATTTAAGACAAATTACACACGTATGCCAAATATAT [CACACA_site431] — lower, 9.58
- TTTTTAATTTCAATGGTGCAGTAATAATATAATAGT — lower, 9.13
- AATATATATAATTATAGTACAGAAAATTAAAAAAGA [XGTACX_site2943] — lower, 9.43
- TGTTCTATTCTATTATTATTTACAAATTATAAATAA [GTGCAC_negctrl_site232] — lower, 9.2
- ATATATTTATAATAGGTGCATATGTTTTATTTTTCC [GTGCAC_site9849] — lower, 9.49
- TATATATATTAGTGTGCACACTTTTTATTTTTATCC [CACACA_site8506] — higher, 9.75
- TGTAATAAATAGTACACACACACATATATATATATT [CACACA_site1388] — higher, 9.94
- AGATATGTTTTTAATTGTACATAAATACACAAATAT [XGTACX_site5981] — lower, 9.12
- AAAGAATTATATAAGGTGCACGAATGTTTCTTTAAT — lower, 9.13
- AAAAAAAAAAAAAAAAAAAAAATACATATATATATA [CACACA_negctrl_site290] — lower, 9.07
- ATATGTGTGTGTATTTGTACCCAATTTTTATATATA [XGTACX_site4948] — higher, 10.1
- TATAAATATATTTATACACACATTAGTGTATACATG [CACACA_site7397] — lower, 9.39
- AACTATAACTAAAAAAATCACATAAAATATTTTATT [TGCATGCA_negctrl_site363] — lower, 9.28
- TCGTGTTAAATTTTTACACACAAACTTGCAATAATT [CACACA_site3824] — lower, 9.51
- AGGTGAAAAATATATAATAATGTAACAAAAAAAAAT [XGTACX_negctrl_site394] — lower, 9.56
- TTATGTTATAAATACACACACAAAAGAAAAAAAAAA [CACACA_site7414] — higher, 9.86
- TCCCATAATATTAGTAGTACTATTAATATTTTCAGG [XGTACX_site4925] — lower, 9.07
- TTCTCTATAAATGCTGCACACACATTTAATTATTTA [CACACA_site8828] — higher, 9.69
- ATTTCTTTTTTTTCTTGTACACATATTAAATTTATG [XGTACX_site734] — lower, 9.55
- TCTAAACAAATTAATAAAATAAGTATTCAAAATTAT [CACACA_negctrl_site731] — lower, 8.98
- AATATTTATTTTTTTGCACACATATTTTACATTTTA [CACACA_site3182] — higher, 9.82
- GTAAAATTTCGGATTTGTACACATGGCTATGAAAAA [XGTACX_site939] — lower, 9.14
- AAAAAGCAGGATTATACACACAAATATTTATATGTT [CACACA_site6634] — higher, 9.66
